Laboratory results: paper PMC4336329 (PLoS ONE, 2015)
Out of some 310,000 compounds screened, about 2,200 (0.71%) showed an effect of 50% or more. The effect is printed as a negative number. The list shows a part of the results.

target: human ether-à-go-go-related gene (hERG) potassium channel (human, UniProt Q12809); assay: primary screen, population patch clamp on CHO cells stably expressing hERG
Sequence (Q12809 whole entry, looked up): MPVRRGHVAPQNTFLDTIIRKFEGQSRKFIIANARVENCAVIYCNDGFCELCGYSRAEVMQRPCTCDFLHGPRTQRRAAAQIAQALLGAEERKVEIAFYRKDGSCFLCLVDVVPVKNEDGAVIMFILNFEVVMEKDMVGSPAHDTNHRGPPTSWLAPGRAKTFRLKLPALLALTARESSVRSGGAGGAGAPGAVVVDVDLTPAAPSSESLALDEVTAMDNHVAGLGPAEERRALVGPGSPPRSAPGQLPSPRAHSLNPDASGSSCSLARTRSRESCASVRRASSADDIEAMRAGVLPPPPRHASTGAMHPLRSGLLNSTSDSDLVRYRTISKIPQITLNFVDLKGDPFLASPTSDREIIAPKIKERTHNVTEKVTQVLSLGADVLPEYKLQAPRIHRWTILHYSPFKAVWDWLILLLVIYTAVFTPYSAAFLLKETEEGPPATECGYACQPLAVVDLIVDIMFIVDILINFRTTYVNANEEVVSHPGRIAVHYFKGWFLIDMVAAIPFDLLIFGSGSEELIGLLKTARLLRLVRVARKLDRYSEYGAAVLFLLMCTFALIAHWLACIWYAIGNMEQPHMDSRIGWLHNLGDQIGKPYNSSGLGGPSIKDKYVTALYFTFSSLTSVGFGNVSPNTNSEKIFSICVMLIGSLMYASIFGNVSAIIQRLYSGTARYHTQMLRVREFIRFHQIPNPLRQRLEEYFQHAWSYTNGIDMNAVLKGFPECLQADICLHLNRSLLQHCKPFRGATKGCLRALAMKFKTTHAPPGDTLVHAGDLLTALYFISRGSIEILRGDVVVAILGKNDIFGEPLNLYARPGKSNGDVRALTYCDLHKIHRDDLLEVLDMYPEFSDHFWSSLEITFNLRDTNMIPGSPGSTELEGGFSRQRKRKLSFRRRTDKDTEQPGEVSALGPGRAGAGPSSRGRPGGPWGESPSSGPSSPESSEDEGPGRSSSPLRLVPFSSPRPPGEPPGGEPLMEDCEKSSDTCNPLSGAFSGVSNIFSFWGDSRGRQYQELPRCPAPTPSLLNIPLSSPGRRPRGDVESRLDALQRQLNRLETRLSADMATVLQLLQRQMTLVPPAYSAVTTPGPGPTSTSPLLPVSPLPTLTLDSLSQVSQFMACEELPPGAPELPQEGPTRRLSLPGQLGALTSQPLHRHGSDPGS

Compared with `O=C(COC(=O)c1ccc(O)cc1)NC1CCCC1`, `CN(C/C(O)=C(\C#N)c1ccccc1)C1CCCCC1` is lower in “hERG current change (%, negative = inhibition) at 1uM” value: 15.1% for the first, 10.1% for the second.

Compared with `COc1ccc(-n2c(CCC(=O)O)ccc2-c2ccccc2)cc1`, `COc1ccc(C(=O)Nc2c(-c3ccccc3)nc3ccccn23)c(OC)c1` is higher in “hERG current change (%, negative = inhibition) at 1uM” value: 3.65% for the first, 13.4% for the second.

First: Cc1ccc(C(=O)C(C)OC(=O)Cc2c[nH]c3ccccc23)cc1 (stereo not shown)
Second: COc1ccc(C(=O)N2CCC(C(=O)Nc3ccccc3OC)CC2)cc1
The “hERG current change (%, negative = inhibition) at 1uM” value of the first is lower: 7.75% for the first, 13.4% for the second.

Going from `CCN(CC(=O)Nc1c(F)cccc1F)C(=O)c1ccc(S(=O)(=O)N2CCCC2)cc1` to `Cc1ccc(C(=O)Nc2ccc(S(=O)(=O)N3CCCC3)cc2)cc1`, the “hERG current change (%, negative = inhibition) at 1uM” value rises from 4.21% to 12.5%.

First: Cc1ccc(NC(=O)c2ccc(Cn3cc([N+](=O)[O-])cn3)cc2)c(C)c1
Second: CCOC(=O)c1cnn(CCOC(=O)c2ccc(F)cc2)c1NC(=O)c1ccc(F)cc1
The “hERG current change (%, negative = inhibition) at 1uM” value of the first is higher: 7.82% for the first, 2.82% for the second.

Going from `COc1cc(S(=O)(=O)N2CCOCC2)ccc1NC(=O)COC(=O)COc1ccccc1` to `CCC(=O)Nc1ccccc1C(=O)N1CCN(Cc2ccccc2)CC1`, the “hERG current change (%, negative = inhibition) at 1uM” value rises from 5.16% to 8.56%.

First: Cc1ccccc1Cn1ccc(NC(=O)c2cnn3cccnc23)n1
Second: O=C(CSc1ccc2nnc(-c3cccnc3)n2n1)c1ccccc1
The “hERG current change (%, negative = inhibition) at 1uM” value of the first is higher: 4.41% for the first, -13.6% for the second.

Going from `COc1ccc(/C=N/NC(=O)CN(C)S(=O)(=O)c2ccc(NC(C)=O)cc2)cc1` to `COc1ccc(NC(=O)/C(N=Nc2cc(S(=O)(=O)Nc3ccc(OC)cc3)ccc2OC)=C(\C)O)cc1`, the “hERG current change (%, negative = inhibition) at 1uM” value rises from 2.96% to 15.4%.

Going from `O=C(Cn1ncc(Cl)c(Cl)c1=O)NC1CCS(=O)(=O)C1` (stereo not shown) to `O=C(NC1CCS(=O)(=O)C1)c1cccc(S(=O)(=O)N2CCCCC2)c1` (stereo not shown), the “hERG current change (%, negative = inhibition) at 1uM” value rises from 0.998% to 6.02%.

Going from `COc1ccc(CCNC(=O)CC(=O)N/N=C/c2ccc(Br)cc2)cc1OC` to `O=C(Cc1ccc(Br)cc1)N/N=C/c1cccnc1`, the “hERG current change (%, negative = inhibition) at 1uM” value falls from 7.64% to 2.1%.

First: CN(C)S(=O)(=O)c1cccc(C(=O)Nc2cc(Cl)ccc2O)c1
Second: O=C(Nc1cccc(O)c1)c1ccc(Br)c(S(=O)(=O)N2CCCCC2)c1
The “hERG current change (%, negative = inhibition) at 1uM” value of the first is lower: 0.679% for the first, 7.4% for the second.

First: CCOc1ccc(-c2nnn(CC(=O)N3CCCC(C)C3)n2)cc1 (stereo not shown)
Second: CCOc1cc(/C=C2\SC(N3CCCC(C)C3)=NC2=O)ccc1O (stereo not shown)
The “hERG current change (%, negative = inhibition) at 1uM” value of the first is lower: 2.01% for the first, 12.6% for the second.

Compared with `O=C(COc1ccc2ccccc2c1)N1CCNCC1.O=C(O)C(F)(F)F`, `COc1ccc(NC(=O)c2cc(-c3ccccc3Cl)no2)cc1` is higher in “hERG current change (%, negative = inhibition) at 1uM” value: 5.67% for the first, 6.92% for the second.

Going from `Br.CCCCn1c(=N)n(CCOc2ccc(C)cc2)c2ccccc21` to `CCOc1ccc(NS(=O)(=O)c2ccc(C)c(C(N)=O)c2)cc1`, the “hERG current change (%, negative = inhibition) at 1uM” value rises from -59.6% to 14.9%.

First: C=C(C)CN=C1SC(C(=O)Nc2sc3c(c2C(=O)OC)CCC3)C(N)=C1C(N)=O (stereo not shown)
Second: COC(=O)c1ccccc1NC(=O)CSc1nnc(C(C)NC(=O)c2ccc(Cl)cc2Cl)n1C (stereo not shown)
The “hERG current change (%, negative = inhibition) at 1uM” value of the first is higher: 14.1% for the first, -3.64% for the second.

First: Cl.O=C1CCC(c2ccccc2)(C2CCN(Cc3ccccc3)CC2)C(=O)N1 (stereo not shown)
Second: Cc1nc(CS(=O)(=O)c2ccccc2)cc(N2CCN(c3ccccc3F)CC2)n1
The “hERG current change (%, negative = inhibition) at 1uM” value of the first is lower: 7.17% for the first, 9.36% for the second.

Compared with `CNC(=O)c1ccccc1F`, `O=C(Nc1nnc(-c2ccncc2)o1)c1ccccc1F` is lower in “hERG current change (%, negative = inhibition) at 1uM” value: 11.5% for the first, 7.95% for the second.

Going from `CCn1c2ccccc2c2cc(NC(=O)COC(=O)c3cc(OC)c(OC)cc3OC)ccc21` to `Cc1cccc(C(=O)OCC(=O)Nc2nnc(-c3ccccc3)o2)c1O`, the “hERG current change (%, negative = inhibition) at 1uM” value falls from 9.06% to 1.36%.

Going from `O=C(O)C1CCCN1c1ncccn1` (stereo not shown) to `O=C(NCCC1=CCCCC1)C1CCN(c2nnc(-n3cccc3)s2)CC1`, the “hERG current change (%, negative = inhibition) at 1uM” value falls from 1.01% to -6.21%.

First: Cc1ccc(NC(=O)/C(C#N)=C/c2ccc(Sc3nc(C)cc(C)n3)o2)cc1
Second: COc1ccc(NC(=O)NS(=O)(=O)c2ccc(C)cc2)c(OC)c1
The “hERG current change (%, negative = inhibition) at 1uM” value of the first is lower: 11.7% for the first, 16% for the second.

First: CCCCC(=O)NC(c1ccccc1Cl)c1c(O)ccc2ccccc12 (stereo not shown)
Second: O=C(COc1ccccc1/C=C1\SC(=O)NC1=O)Nc1ccccc1
The “hERG current change (%, negative = inhibition) at 1uM” value of the first is lower: -0.695% for the first, 21.8% for the second.

Going from `C=C(C)CC1N(c2cccc(OC)c2)C(=O)C2C(C(=O)O)C3C=CC21O3` (stereo not shown) to `COc1ccc(CNC(=O)CCS(=O)(=O)c2ccc3c(c2)CC(C)N3C(=O)C2CC2)cc1` (stereo not shown), the “hERG current change (%, negative = inhibition) at 1uM” value rises from 8.54% to 10.1%.

First: COC(=O)c1ccc(NS(=O)(=O)c2cc3c4c(c2)CCC(=O)N4CCC3)cc1
Second: Cc1cccc(N2CC(C(=O)Nc3ccc4c(c3)OCO4)CC2=O)c1C (stereo not shown)
The “hERG current change (%, negative = inhibition) at 1uM” value of the first is higher: 4.92% for the first, -3.24% for the second.

Compared with `CC(C)(C)c1nn2cnnc2n(/N=C/c2cccc3ccccc23)c1=O`, `O=c1cnn(-c2ccc(Cl)cc2Cl)c(-c2ccccc2)c1` is lower in “hERG current change (%, negative = inhibition) at 1uM” value: 10% for the first, 5.48% for the second.

First: CC(C)CN(C(=O)COC(=O)c1ccc(Cl)nc1)c1c(N)n(Cc2ccccc2)c(=O)[nH]c1=O
Second: CCCn1c(CN(Cc2ccccc2)Cc2ccccc2)nc2c1c(=O)n(C)c(=O)n2C
The “hERG current change (%, negative = inhibition) at 1uM” value of the first is higher: 13.2% for the first, 12.8% for the second.

Going from `Oc1[nH]c2ccccc2c1N=Nc1c(F)c(F)c(C(F)(F)F)c(F)c1F` to `Cc1nnc2ccc(-c3cccc(C(F)(F)F)c3)nn12`, the “hERG current change (%, negative = inhibition) at 1uM” value rises from 5.76% to 5.93%.

Compared with `Cc1ccc(-c2nnc(N3CCCCC3)c3ccccc23)cc1S(=O)(=O)N1CCN(C)CC1`, `Cc1ccc(Cl)cc1N1CCN(S(=O)(=O)c2c(C)nc3scc(C)n3c2=O)CC1` is higher in “hERG current change (%, negative = inhibition) at 1uM” value: -16.9% for the first, 15.2% for the second.

Compared with `CC1CCN(CC(O)COC2CC(C)CCC2C(C)C)CC1.Cl` (stereo not shown), `COC(=O)C1=C(c2ccc(OC)c(OC)c2)C[C@@H]2CC[C@H]1N2C(=O)N1CCC(O)CC1` is higher in “hERG current change (%, negative = inhibition) at 1uM” value: -13.9% for the first, 12.7% for the second.

Compared with `CCOc1ccc([N+](=O)[O-])cc1CNC1CCCCCCC1.Cl`, `CN1C(=O)c2cccc(NC(=O)C3CCCCC3)c2C1=O` is lower in “hERG current change (%, negative = inhibition) at 1uM” value: 11.4% for the first, 1.01% for the second.

Compared with `Brc1cc2c(cc1/C=N/Nc1nc3ccccc3s1)OCO2`, `Cn1nnnc1SCC(=O)Nc1ccc2c(c1)OCO2` is higher in “hERG current change (%, negative = inhibition) at 1uM” value: 8.4% for the first, 13.2% for the second.

Compared with `CCc1nnc(SCC(=O)NC2CC2)n1CC`, `Cc1occc1-c1nnc(SCC(=O)N2CCOCC2)n1CC(C)C` is lower in “hERG current change (%, negative = inhibition) at 1uM” value: 18.8% for the first, 7.82% for the second.

Going from `Nc1nnc(SCC(=O)OCC(=O)NC23CC4CC(CC(C4)C2)C3)s1` to `COC(=O)Cc1nc(NC(=O)c2cccs2)sc1C`, the “hERG current change (%, negative = inhibition) at 1uM” value rises from 15.5% to 23.2%.

Going from `CC(=O)Nc1ccc2c(c1)OCCOCCOc1cc(NC(C)=O)ccc1OCCO2` to `Cc1cc(-c2nnc(SCC(=O)c3ccc4c(c3)OCCO4)o2)no1`, the “hERG current change (%, negative = inhibition) at 1uM” value falls from 9.07% to -2.61%.

First: COc1cc(CNCCCO)ccc1OCC(=O)NC(C)(C)C
Second: Cc1ccc2ncnc(NCCC(=O)O)c2c1.Cl
The “hERG current change (%, negative = inhibition) at 1uM” value of the first is higher: 15.6% for the first, 2.24% for the second.

Going from `COc1ccccc1CNc1ccccc1F` to `Cc1cc(Cl)ccc1Oc1ccccc1C(=O)CC#N`, the “hERG current change (%, negative = inhibition) at 1uM” value falls from 10.3% to -1.61%.

Compared with `Cc1nonc1NC(=O)c1oc2ccc(F)cc2c1C`, `NC(=O)c1cc2cc(Br)ccc2o/c1=N/NC(=O)c1cccc(F)c1` is lower in “hERG current change (%, negative = inhibition) at 1uM” value: 21.4% for the first, 11.8% for the second.

Going from `COc1ccc(N2C(S)=C(C#N)C(=O)NC23CCCCC3)cc1` to `COc1ccc(/C=C/C(=O)NNC(=O)c2cc(C)oc2C)cc1`, the “hERG current change (%, negative = inhibition) at 1uM” value falls from 21.1% to 11.6%.

Going from `CN(C)CCN1CC(C(=O)O)CC1=O` (stereo not shown) to `Cc1cc(=O)n(C)c(=O)n1CC(=O)N1CCCCCC1`, the “hERG current change (%, negative = inhibition) at 1uM” value rises from 10.4% to 16.5%.

Compared with `CCc1c(C)sc(NC(=O)C2CC(c3c(F)cccc3Cl)=NO2)c1C#N` (stereo not shown), `CCOC(=O)C1=C(C)NC(=S)NC1c1ccc(-c2cccc(Cl)c2C)o1` (stereo not shown) is lower in “hERG current change (%, negative = inhibition) at 1uM” value: 12.9% for the first, 10.8% for the second.

Going from `O=C(Nc1cccc(Cl)c1Cl)Nn1cnnc1` to `Cc1ccc(C(=O)Nc2ccc(Nc3ccccc3)cc2)c(Cl)c1`, the “hERG current change (%, negative = inhibition) at 1uM” value rises from 16.1% to 16.9%.

First: COc1ccc(CN2CCNC(=O)C2CC(=O)N2CCCN(C(C)=O)CC2)c(OC)c1 (stereo not shown)
Second: COc1cccc(NC(=O)CCN2C(=O)c3ccccc3Sc3ncccc32)c1
The “hERG current change (%, negative = inhibition) at 1uM” value of the first is higher: 16% for the first, 12% for the second.

Going from `CCN(CC)Cc1ccccn1.Cl` to `COc1ccc(Cl)cc1NC(=S)N(Cc1cccnc1)Cc1ccco1`, the “hERG current change (%, negative = inhibition) at 1uM” value falls from 9.21% to -15.9%.

Compared with `c1ccc(Cn2nnnc2CN2CCN(Cc3ccc4c(c3)OCO4)CC2)cc1`, `Cc1nc(CSc2ccc(Cl)cc2)cc(N2CCOCC2)n1` is higher in “hERG current change (%, negative = inhibition) at 1uM” value: -36.5% for the first, 0.168% for the second.

First: CC(C)(C)N1C(=O)[C@H]2[C@@H](c3ccc(Br)cc3)N3C(=O)N(c4cccc(Cl)c4)C(=O)[C@@]3(Cc3ccccc3)[C@H]2C1=O
Second: O=C(CCN=C1NS(=O)(=O)c2ccccc21)OCc1ccccc1
The “hERG current change (%, negative = inhibition) at 1uM” value of the first is higher: 15.1% for the first, 4.13% for the second.
